Measurements as given in patent publication US11111295B2, “Antibody for anti-claudin 18A2 and use thereof” (CAFA THERAPEUTICS LIMITED, priority 2016, dated 2021).
Numbering of substitutions follows the chain as printed. In names and notes the source's numbering stands.

Key:
human CLD18A2 = molecular target: T1, human CLD18A2 (Homo sapiens, UniProt P56856); assay: Flow cytometry binding of scFv_Fc fusion antibody to HEK293 cells stably transfected with human CLD18A2 (EC50); details: scFv fused to human IgG1 Fc portion; for EC50: HEK293 cells stably transfected with human CLD18A2, read-out: relative binding affinity EC50 value
T1 construct: expressed in transfected cells
T1 sequence (P56856 1-261 isoform P56856-2): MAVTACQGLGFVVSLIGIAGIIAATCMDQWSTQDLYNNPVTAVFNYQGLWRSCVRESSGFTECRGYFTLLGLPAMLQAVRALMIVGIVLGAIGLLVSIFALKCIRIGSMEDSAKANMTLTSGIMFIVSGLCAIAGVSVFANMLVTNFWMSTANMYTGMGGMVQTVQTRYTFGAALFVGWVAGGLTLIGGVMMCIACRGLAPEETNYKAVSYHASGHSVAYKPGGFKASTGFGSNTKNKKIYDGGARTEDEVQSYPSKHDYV
Procedure: Binding of anti-Claudin 18A2 scFv_Fc fusion antibody to HEK293 cells stably transfected with CLD18A2 was determined by flow cytometry. Experimental data was analyzed using GraphPad Prism and Guava easyCyte™ HT System instrument as described in Example 1 to obtain EC50 value.
Expression vectors of ScFv Fc-form of the two mutants were constructed as described in Example 2, and according to the procedure of Example 2, and the experimental data was analyzed using GraphPad Prism and Guava easyCyte™ HT System instrument to obtain EC50.
The binding activity assay was performed as described in Example 2, and experimental data was analyzed using HEK293 cells (HEK-CLD18A2) stably expressing human CLD18A2, GraphPad Prism and Guava easyCyte™ HT System instrument to obtain EC50, and the results are shown in FIG. 5.
(5) The binding activity was tested, and experimental data was analyzed using HEK293 cells (HEK-CLD18A2) stably expressing human CLD18A2, GraphPad Prism and Guava easyCyte™ HT System instrument, and the results are shown in FIG. 6.
The mutant hu8E5-2I of the humanized antibody hu8E5 was constructed as described in Example 3. Experimental data was analyzed using HEK293 cells (HEK-CLD18A2) stably expressing human CLD18A2, GraphPad Prism and Guava easyCyte™ HT System instrument, and the results are shown in FIG. 7.

[1] = Molecular sieve analysis of monomeric form of scFv_Fc fusion antibody; type: physicochemical
Procedure: The 3D model of hu8E5 was established by Discovery studio software, and the potential aggregation sites were analyzed.

[2] = system: HEK293 cells stably transfected with CLD18A1; assay: Complement dependent cytotoxicity (CDC), CCK-8; type: cell-based, human; details: antibody 20 μg/ml; serum 10%
Procedure: (§1) Blood was collected from healthy volunteers and serum was prepared by centrifugation. A CCK-8 cell proliferation-toxicity assay kit (Dojindo, #CK04) was used. HEK293 cells stably transfected with CLD18A2 or CLD18A1 were used as target cells. The cells were washed twice, resuspended in complete medium at a density of 1×10^5 cells/ml, seeded in a 96-well culture plate at 100 μl per well and cultured overnight at 37° C. The next day, antibody was added to each well at a final concentration of 20 μg/ml, and incubate for 30 min at 37° C. in an incubator. Then, serum at a final concentration of 10% was added and incubated at 37° C. for 1.5 hours. 10 ul of CCK-8 solution was added to each well, incubated at 37° C. for 3.5 h (adjusted as appropriate), and the absorbance at 450 nm was measured with a microplate reader.
(§2) lysis percentage is calculated as follows: Lysis percentage=(cell control well−experiment well)/cell control well−(cell control well−antibody control well)/cell control well.

[3] = system: HEK293 cells stably transfected with CLD18A2; assay: Complement dependent cytotoxicity (CDC), CCK-8; type: cell-based, human; details: antibody 20 μg/ml; serum 10%
Procedure: as §1, §2

[4] = system: HEK293 cells stably transfected with CLD18A2; assay: Antibody-dependent cytotoxicity (ADCC), LDH release with human PBMC; type: cell-based; details: antibody 20 μg/ml; effector-to-target ratio 50:1, 20:1 and 10:1
Procedure: The ADCC activity of the humanized antibody, claudin 18A2 antibody was measured by a lactate dehydrogenase (LDH) release assay using a cytoTox 96 non-radioactive cytotoxicity assay kit (Promega, Madison, USA). Human peripheral blood mononuclear cells (PBMC) were purified from citrated whole blood by standard Ficoll-paque separation and resuspended in complete medium (RPMI-1640 culture, Gibco) supplemented with 10% fetal bovine serum (FBS, Gibco) at a density of 8×10^6 cells/ml. HEK293 cells stably transfected with CLD18A2 were used as target cells. The cells were washed twice and resuspended in a complete culture at a density of 2×10^5 cells/ml. PBMCs were incubated with an antibody at a final concentration of 20 ug/ml for 30 minutes at 37° C., and then 50 μl of antibody and effector cells were added into 50 μl of target cells at a effector-to-target ratio of 50:1, 20:1, 10:1 (total 1×10^4 target cells). […] The percentage of lysis was calculated as follows: (sample release−target spontaneous release−spontaneous release of effector cells)/(maximum release−target spontaneous release)*100; wherein the target spontaneous release is fluorescence in wells containing only target cells, spontaneous release of effector cells is fluorescence in wells containing only effector cells, and maximum release is fluorescence in wells containing target cells that have been treated with lysis buffer.

gastric cancer PDX tumor = assay: Gastric cancer PDX model, antibody treatment; type: in vivo, BALB/c nude mice; details: D56 after inoculation; vs PBS control; antibody 40 mg/kg injected 6 times, EOF injected twice
Procedure: Establishment of a PDX model of gastric cancer: Tumors of about 3 mm×3 mm×3 mm in size were inoculated subcutaneously into the right ankle of BALB/c nude mice. The day of tumor cell inoculation was recorded as D0 days, the tumor volume was measured at D27 from the inoculation of tumor, and the mice were randomly divided into 5 groups. The specific groups are as follows: (1) PBS (phosphate buffer) control group; (2) hu8E5-2I antibody treatment group (40 mg/kg); (3) EOF treatment group (E is epirubicin: 1.25 mg/Kg; O is oxaliplatin: 3.25 mg/kg; F is 5-fluorouracil: 56.25 mg/kg)+PBS; (4) hu8E5-2I antibody (40 mg/kg)+EOF treatment group (1.25 mg/kg Epirubicin+3.25 mg/kg oxaliplatin+56.25 mg/kg 5-fluorouracil); (5) ch175D10 antibody (40 mg/kg)+EOF treatment group (1.25 mg/kg epirubicin+3.25 mg/kg oxaliplatin+56.25 mg/kg 5-fluorouracil). Dosage: EOF was administered once a week for 2 weeks; hu8E5-2I and ch175D10 antibodies were administered 3 times per week for 2 weeks.
The tumor was inoculated for D56 days, the EOF was injected twice, the antibody was injected 6 times, and the mice were sacrificed by cervical dislocation. […] From the tumor weighing, the EOF+mAb hu8E5-2I treatment group was statistically different over the EOF+PBS group, P=0.033; while the EOF+mAb 175D10 treatment group was not statistically different over the EOF+PBS group, P=0.097.

B1: hu8E5: humanized antibody of 8E5 with S62A, heavy chain SEQ ID NO:67, light chain SEQ ID NO:65 (antibody)
heavy: QVQLQESGPGLVKPSQTLSLTCTVSGGSISSGYNWHWIRQPPGKGLEWIGYIHYTGSTNYNPALRSRVTISVDTSKNQFSLKLSSVTAADTAIYYCARIYNGNSFPYWGQGTTVTVSS[human IgG1 constant region not written out]
light: DIVMTQSPDSLAVSLGERATINCKSSQSLFNSGNQKNYLTWYQQKPGQPPKLLIYWASTRESGVPDRFSGSGSGTDFTLTISSLQAEDVAVYYCQNAYSFPYTFGGGTKLEIKRTVAAPSVFIFPPSDEQLKSGTASVVCLLNNFYPREAKVQWKVDNALQSGNSQESVTEQDSKDSTYSLSSTLTLSKADYEKHKVYACEVTHQGLSSPVTKSFNRGEC
EC50 (human CLD18A2): 107 nM
proportion of the monomeric form in scFv_Fc fusion antibody [1]: 74%

B2: hu8E5-2I: hu8E5 mutant, heavy chain valines 12 and 93 mutated to I; heavy chain SEQ ID NO:63, light chain SEQ ID NO:65 (antibody)
heavy: B1 heavy with V12I
light: B1 light
increase of affinity compared with the parent antibody 8E5 (human CLD18A2): 5 fold
EC50 (human CLD18A2): 9.22 nM
CDC killing of cells expressing 18A1 [2]: did not kill
CDC effects against HEK293-CLD18A2 [3]: 82.65%
proportion of the monomeric form in scFv_Fc fusion antibody [1]: 87%
ADCC effects compared with reference antibodies [4]: significantly higher ADCC effects than ch-175D10 and ch-163E12
tumor inhibition rate (gastric cancer PDX tumor): 21.13%
